Publication PMC4336329 (PLoS ONE, 2015)
Among all 310,000 compounds or so, about 2,200 (0.71%) showed an effect of 50% or more. Effects have a minus sign here. Some of the results follow.

What follows are compounds tested against human ether-à-go-go-related gene (hERG) potassium channel (human, UniProt Q12809) (assay: primary screen, population patch clamp on CHO cells stably expressing hERG).
Sequence of human ether-à-go-go-related gene (hERG) potassium channel (Q12809 whole entry, looked up): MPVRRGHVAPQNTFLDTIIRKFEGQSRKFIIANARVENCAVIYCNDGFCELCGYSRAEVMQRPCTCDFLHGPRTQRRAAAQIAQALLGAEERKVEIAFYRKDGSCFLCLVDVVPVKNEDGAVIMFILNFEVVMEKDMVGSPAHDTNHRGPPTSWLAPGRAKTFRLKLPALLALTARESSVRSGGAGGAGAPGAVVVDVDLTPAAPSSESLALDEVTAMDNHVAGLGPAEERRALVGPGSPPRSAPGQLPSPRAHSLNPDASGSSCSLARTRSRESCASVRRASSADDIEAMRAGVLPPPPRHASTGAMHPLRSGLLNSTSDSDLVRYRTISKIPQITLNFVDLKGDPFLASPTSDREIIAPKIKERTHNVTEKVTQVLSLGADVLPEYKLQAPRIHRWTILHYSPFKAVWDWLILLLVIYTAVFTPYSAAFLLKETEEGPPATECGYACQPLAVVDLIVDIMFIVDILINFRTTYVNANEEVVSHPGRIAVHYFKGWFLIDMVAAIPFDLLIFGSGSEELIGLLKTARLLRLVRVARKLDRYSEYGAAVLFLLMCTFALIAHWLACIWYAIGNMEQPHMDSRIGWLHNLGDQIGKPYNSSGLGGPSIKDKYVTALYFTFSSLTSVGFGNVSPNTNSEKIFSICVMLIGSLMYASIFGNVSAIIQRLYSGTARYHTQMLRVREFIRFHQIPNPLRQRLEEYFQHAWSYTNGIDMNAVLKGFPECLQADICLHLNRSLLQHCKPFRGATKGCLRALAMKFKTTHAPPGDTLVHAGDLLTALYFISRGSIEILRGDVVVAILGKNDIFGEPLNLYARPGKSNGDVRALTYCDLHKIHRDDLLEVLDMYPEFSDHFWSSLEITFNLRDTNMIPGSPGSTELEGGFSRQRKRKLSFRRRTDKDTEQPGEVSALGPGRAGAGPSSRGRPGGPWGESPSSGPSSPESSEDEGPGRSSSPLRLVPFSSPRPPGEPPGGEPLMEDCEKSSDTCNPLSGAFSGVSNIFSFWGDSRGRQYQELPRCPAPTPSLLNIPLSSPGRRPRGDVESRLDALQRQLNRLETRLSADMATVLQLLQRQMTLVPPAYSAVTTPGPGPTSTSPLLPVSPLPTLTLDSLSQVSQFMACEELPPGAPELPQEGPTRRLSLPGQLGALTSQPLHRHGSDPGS

| SMILES | hERG current change (%, negative = inhibition) at 1uM [%] |
| --- | --- |
| COc1ccccc1CNC(=O)COC(=O)c1ccc(S(=O)(=O)N2CCCC2)cc1 | 9.33 |
| CCc1cccc(C)c1NC(=O)c1cc(C)oc1C | 4.7 |
| CCCn1c(SCC(=O)Nc2nnc(CC)s2)nnc1-c1ccco1 | 11.9 |
| Cc1ccc(-c2cc(C(=O)NCCN3CCOCC3)no2)cc1 | 9.98 |
| COc1ccc(-c2csc(NC(=O)c3cccc(N4C(=O)CCC4=O)c3)n2)cc1C | 7.64 |
| CCOc1ccc(/C=N/NC(=O)CSc2n[nH]c(=O)[nH]c2=O)cc1OC | 8.24 |
| COc1cccc(Oc2cn[nH]c2-c2ccc(OCC(=O)NN)cc2O)c1 | 15.7 |
| COc1cccc(-c2nc(CSCC(=O)NCC3CCCO3)c(C)o2)c1 (stereo not drawn) | 8.7 |
| CC(C(=O)N1CCCCC1)N(C)CC(=O)Nc1ccc(Cl)cc1 (stereo not drawn) | 13.5 |
| COc1ccc(/C=C2\SC(=O)N(CC(=O)Nc3ccc(F)cc3)C2=O)cc1O | 13.3 |
| Cl.O=C(CN1CCN(c2ccc(F)cc2)CC1)N1CCC(Cc2ccccc2)CC1 | -5.57 |
| Nc1ccccc1C(=O)NC1CCCNC1=O (stereo not drawn) | 8.51 |
| COC(=O)CC1COc2ccccc2N1C(=O)/C=C/c1ccccc1 (stereo not drawn) | 7.05 |
| COc1ccc(CNC(=O)c2ccc(Cn3nc(C)c([N+](=O)[O-])c3C)o2)cc1 | 8 |
| CC(C)CC(C(=O)N1CCOCC1)N1Cc2ccccc2C1=O (stereo not drawn) | 15 |
| Cc1oc2c(C)c(O)ccc2c(=O)c1-c1cnn(-c2ccccc2)c1 | 13 |
| O=C(NC1CCCc2ccccc21)c1ccccc1OC(F)F (stereo not drawn) | 8.58 |
| O=C(/C=C/c1ccc(O)cc1)c1ccc(NC2=C(N3CCCCC3)C(=O)c3ccccc3C2=O)cc1 | -4.17 |
| Cc1cc(OC(=O)c2ccccc2Cl)cc(=O)n1C | -13.1 |
| CC12CCC(=O)N1C(C(=O)NNC(=O)c1ccc(Cl)cc1)CS2 (stereo not drawn) | 1.41 |
| Cc1cc(C)c(S(=O)(=O)Nc2cccc(C(=O)O)c2)cc1S(=O)(=O)Nc1cccc(C(=O)O)c1 | 14.6 |
| CCC(CC)c1nnc(NC(=O)CS(=O)(=O)c2ccc(C)cc2)s1 | 18.7 |
| O=C(NCCCN1CCN(CCCNC(=O)c2ccc(F)cc2)CC1)c1ccc(F)cc1 | -15.3 |
| COc1ccc(NS(=O)(=O)c2cccc(C(=O)N3CCCCCC3)c2)cc1 | 4.86 |
